The other results are listed elsewhere or left out.
Molecular target: T1, OsWOX13 (Oryza sativa, UniProt Q5QMM3 1-267)
T1 sequence: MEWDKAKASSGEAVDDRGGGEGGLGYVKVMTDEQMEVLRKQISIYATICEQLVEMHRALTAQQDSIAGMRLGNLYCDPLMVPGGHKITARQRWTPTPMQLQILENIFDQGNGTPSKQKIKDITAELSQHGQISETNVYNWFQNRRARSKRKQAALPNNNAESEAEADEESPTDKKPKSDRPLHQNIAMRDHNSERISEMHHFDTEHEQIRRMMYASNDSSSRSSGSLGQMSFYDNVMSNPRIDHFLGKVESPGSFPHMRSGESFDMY
Assay: protein-binding microarray (RPBM); PBS, 2% BSA, 51.3 ng/ul salmon testes DNA, 50 uM zinc acetate, 200 nM TF, 25 C, 1 h; high values mean tight binding
Details: protein: recombinant; tags: N-terminal polyhistidine and DsRed monomer fusion (pET32a); label: CyDye5-dUTP incorporated in the synthesized complementary strand; 3' TTTTT single-stranded linker to array surface; dsDNA, one strand shown
Outline: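 Binding signal is reported as fluorescence intensity per feature (arbitrary units) from an Axon 4000B scanner. Incubation used 200 nM of each Ni–NTA-purified, N-terminally polyhistidine- and DsRed-fused transcription factor from E. coli BL21-CodonPlus on a double-stranded custom Agilent array for 1 h at 25 °C, with 50 µM zinc acetate in the buffer, followed by washing.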

Sequence | binding signal
TGAACTTTGATCACTAATTAGTCTTAAAATAGTTCGATGGCGGAGTCACCTAGTGCAG | 13500 fluorescence intensity (a.u.)
GACAACTTAATTAGTTAATTAACTGACGGCTGTGCAGAGACGGAGTCACCTAGTGCAG | 39900 fluorescence intensity (a.u.)
CAGCAAATATATTGTTTAATTTAATCAATTTGCCTGCAAACGGAGTCACCTAGTGCAG | 8180 fluorescence intensity (a.u.)
CGCTTCCTGTTGTGATTATGTAATCTTGTATTCTTGTTGACGGAGTCACCTAGTGCAG | 7400 fluorescence intensity (a.u.)
GTGATTGGATCTGTAATTATCAATCTCTCTCTCTCTCTCTCGGAGTCACCTAGTGCAG | 64600 fluorescence intensity (a.u.)
TGTTGAATGTTGATAGATTTATGCGATAACTCGGTATAGGCGGAGTCACCTAGTGCAG | 14600 fluorescence intensity (a.u.)
ATAATAGATAAGTTAATAGATTTTGAAGTCAAAGTTTCTGCGGAGTCACCTAGTGCAG | 25400 fluorescence intensity (a.u.)
CCTGATTATTTGGTCTCGAATGGGTTCACATTCTTTATCTCGGAGTCACCTAGTGCAG | 37600 fluorescence intensity (a.u.)
ACATTAATCATAACATCATATGAATCAAGCATGCTCTAGCCGGAGTCACCTAGTGCAG | 6430 fluorescence intensity (a.u.)
TAACCTTAACCTGTTAATTAACAACAAAATTTAGATTCTACGGAGTCACCTAGTGCAG | 14800 fluorescence intensity (a.u.)
ATCATAAATTATAAATTATTGTTCAGATTTATAGGTTTAGCGGAGTCACCTAGTGCAG | 50000 fluorescence intensity (a.u.)
CTGAGGACACTTAATGATTGATGCTCATAATATATTGTTTCGGAGTCACCTAGTGCAG | 17300 fluorescence intensity (a.u.)
TAATAATTTACGCGCCATCCTGCTCCTATATATACTCATCCGGAGTCACCTAGTGCAG | 12200 fluorescence intensity (a.u.)
GCCGAGTTGACACAATTAACACCAAGCAATGGTCATTAGCCGGAGTCACCTAGTGCAG | 7470 fluorescence intensity (a.u.)
CCTGTAGTCCAATCATTGCTTCTAGAGGCTCAAGGCCTCTCGGAGTCACCTAGTGCAG | 3860 fluorescence intensity (a.u.)
AATCACTAATTAGTGAGCAGATCATCCATCAACATAGATACGGAGTCACCTAGTGCAG | 30700 fluorescence intensity (a.u.)
CGAAATTACAAATTTATAGATTCAAGCTATGTTATTGCACCGGAGTCACCTAGTGCAG | 28800 fluorescence intensity (a.u.)
TGTAATCAAAACTCTGATTTCTTATAATATAATGATGTCCCGGAGTCACCTAGTGCAG | 8740 fluorescence intensity (a.u.)
AACTAGTAATCAACTAATCTTGATCAGATCCTCCTATAAACGGAGTCACCTAGTGCAG | 8190 fluorescence intensity (a.u.)
CTTCTCATGTATTGATTATGGTCAATTGGTCACTCCTCCCCGGAGTCACCTAGTGCAG | 6570 fluorescence intensity (a.u.)
TATCACTATAATAAACATAATTTAACGACATATTTATAGGCGGAGTCACCTAGTGCAG | 4850 fluorescence intensity (a.u.)
AATGACGGCTTAATTAGGCTCAAAAGATTCGTCTCGCGGTCGGAGTCACCTAGTGCAG | 14200 fluorescence intensity (a.u.)
GGCAAATTGTCAGTTGGTATAACTAACTAATAAGGTACCACGGAGTCACCTAGTGCAG | 5660 fluorescence intensity (a.u.)

From PMC7819943, “Rice protein-binding microarrays: a tool to detect cis-acting elements near promoter regions in rice”
